Measured values as given in PubChem BioAssay AID1963576 (National Center for Advancing Translational Sciences (NCATS), 2024).
Screen size: about 46,000 compounds; about 60 (0.1%) were called active. Not shown: some 3% with an inconclusive outcome. Calls come from the whole dose curve; as a rule, active = well fitted inhibition curve with a large enough effect; inconclusive = small, poorly fitted or top-dose-only effect; inactive = no such curve, though single readings can be large or run the other way. This is one part of the list.

Experiment: Primary qHTS assay for Inhibitors of ovarian cancer metastasis using an organotypic tumor microenvironment (TME) model.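 For activity change, negative = inhibition: plate controls were DMSO wells for no effect and tomatine positive control wells for full effect.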 Note: nearly all actives have a fitted effect of over 65% in size.
Conditions: SKOV3ip1-GFP adhesion/invasion on 3D omental model, fluorescence; series mostly up to 45.8 µM; activity change, negative = inhibition: at the top concentration
In short: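 qHTS, 4-pt dose (0.36-46 umol/L); SKOV3ip1-GFP, 1,200 cells/well, no FBS; primary omental fibroblast/mesothelial co-culture 48 h pre-grown; 2 h RT + 16 h 37 C; PBS wash, 4% PFA; GFP count 488/509 nm.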

Activity change, negative = inhibition, inactive:
CCOC(=O)c1c(S(=O)(=O)N2CCCC(C(=O)Nc3ccc(C)cc3C)C2)c(C)n(CC)c1C (centres undefined) 2.15%
CCOC(=O)c1ccccc1NC1(c2ccc(OC)cc2)C(=O)c2ccccc2C1=O 6.69%
Cc1cc(C)c(NC(=O)CSc2nnc3[nH]c(=O)cc(C)n23)c(C)c1 -4.54%
O=c1c2ccccc2n2c(-c3ccc(F)c(F)c3)nnc2n1CCc1ccccc1 0.589%
O=C(NCc1ccc(Cl)cc1)C(=O)NCC(c1ccco1)S(=O)(=O)c1cccs1 (centres undefined) -8.26%
CCCCNC(=O)c1ccc2c(=O)n(-c3ccccc3)c(=O)[nH]c2c1 -2.82%
Cc1ccc(NC(=O)c2sc3nc(-c4ccc(F)cc4)cn3c2C)c(C)c1 -1.16%
CC(=O)Nc1ccc(C(=O)CSc2nnc3cc(C)c4ccccc4n23)cc1 14.2%
CCOC(=O)C1CCN(C(=O)CSc2c3c(nc4ccc(Cl)cc24)CCCC3)CC1 -6.9%
O=C(NCC1(c2ccccc2)CCCC1)C(=O)Nc1cccc(C(F)(F)F)c1 -3.06%
CCOc1ccc(CCNC(=O)CSc2cc(=O)n(C)c3ccccc23)cc1OCC 0.542%
O=C(CSc1n[nH]c(-c2ccccc2)n1)N1CCCCC1 -0.602%
COC(=O)c1sccc1S(=O)(=O)N1CCN(c2cccc(C)c2C)CC1 -0.94%
COc1ccc(-c2cc(C(=O)N3CCN(c4ccccc4OC)CC3)c3cc(C(C)C)ccc3n2)cc1 -3.01%
Cc1ccc(Cl)cc1N1CCN(C(c2ccc(F)cc2)c2nnc(-c3ccccc3)o2)CC1 (centres undefined) -14.1%
CCOC(=O)Cn1c(=O)oc2cc(S(=O)(=O)NCc3ccc(F)cc3)ccc21 23.8%
Cc1noc(/C=C/N(C)C)c1S(=O)(=O)N1CCCC(C(=O)Nc2cccc(F)c2)C1 (centres undefined) 21.4%
CCOc1ccc(CC(=O)NCCc2csc3nc(-c4ccccc4F)nn23)cc1 -8.58%
CC(C=CC(=O)NO)=C[C@@H](C)C(=O)c1ccc(N(C)C)cc1 -0.223%
CCOc1ccc(-c2cc3c(=O)n(Cc4nc(-c5cccc(OC)c5OC)oc4C)ccn3n2)cc1Cl -8.31%
CCc1ccc(-n2nc3ccc(NC(=O)c4cc5ccccc5o4)cc3n2)cc1 10.5%
COc1ccc(OC)c(S(=O)(=O)N2Cc3ccccc3CC2C(=O)Nc2ccc(C(C)=O)cc2)c1 (centres undefined) -24.2%
Cc1cc(C)c(Cn2c3ccccc3c3cnn(CC(=O)NCCCc4ccccc4)c(=O)c32)c(C)c1 -5.82%
O=C(NCc1cccc(Cl)c1)c1cccn1-c1nnc(N2CCCC2)s1 -28.3%
Cc1ccccc1Nc1c(-c2ccsc2)nc2c(C)cccn12 -4.53%
O=C(NCCc1ccccc1)c1ccc(Cn2c(SCc3ccc(F)cc3)nc3cccnc32)cc1 5.59%
CCN(Cc1ccc(OC)cc1)c1ccc(-c2nc(-c3ccncc3)no2)cc1[N+](=O)[O-] -5.21%
Cc1ccccc1NC(=O)Cn1c(=O)n(Cc2ccc3c(c2)OCO3)c(=O)c2oc3ccccc3c21 -9.76%
CCCCN(c1ccccc1)c1ncnc2c1cnn2-c1ccc(Cl)cc1 8.88%
Cc1ccc(CN(Cc2ccco2)c2cnc(S(C)(=O)=O)nc2C(=O)Nc2ccc(Br)cc2)o1 -11.7%
Cc1ccc(-c2nn3c(C)nnc3c3ccccc23)cc1S(=O)(=O)NCCO -3.04%
O=C(NCCc1ccc(Cl)cc1)c1ccc2nc(Cc3ccccc3)oc2c1 13.5%
Cc1cc(C)c(NC(=O)CSc2nc(=O)n(Cc3ccco3)c3c2CCC3)c(C)c1 10.5%
COc1cccc(-c2nc(SCc3cc(=O)c4cc(Cl)ccc4[nH]3)n[nH]2)c1 -4.52%
CS(=O)(=O)c1ncc(N(Cc2ccccc2)Cc2ccco2)c(C(=O)Nc2cccc(C(F)(F)F)c2)n1 8.91%
CC(C)Cn1c(=O)c2sccc2n2c(CCCC(=O)Nc3ccc(Cl)cc3)nnc12 1.24%
CCOC(=O)c1c(NC(=O)c2cc(-c3ccccc3)on2)sc2c1CCCC2 -21.7%
CC(C)(C)C1CCc2c(sc(NC(=O)c3ccccc3F)c2C(=O)N2CCCCC2)C1 (centres undefined) 6.61%
Cc1ccc(Cl)cc1NC(=O)NC1COc2ccccc2C1 (centres undefined) -3.78%
CC(C)Oc1ccc(CNC(=O)Cc2ccc(NC(=O)N3CCSc4ncccc43)cc2)cc1 -10.2%
Cc1ccc2c(c1)c(=O)c(S(=O)(=O)c1ccc(F)cc1)cn2CC(=O)Nc1ccc2c(c1)OCO2 1.45%
CCN(CC)C(=O)c1sc2c(c1C)c(=O)n(-c1ccc(C)c(C)c1)c(=O)n2CC(=O)Nc1ccc(F)cc1 -5.92%
O=C(Cc1ccc(Cl)cc1)Nc1ccc2oc(-c3ccccc3)nc2c1 4.08%
Cc1cc2c(cc1S(=O)(=O)Nc1cccc(C(F)(F)F)c1)OCCN2C 2.84%
CCc1ccc(CN(Cc2ccco2)C(=O)c2cc(-c3ccc(Cl)cc3)on2)cc1 18.7%
Cc1ccc2[nH]c(CSc3nnc(NC(=O)COc4ccccc4F)s3)cc(=O)c2c1 -5.61%
Cc1cccc(Cn2c(CNS(=O)(=O)c3ccc(Cl)s3)nc3cccnc32)c1 -3.47%
Cc1ccc(C)c(OCCOCCn2c(-c3ccc(Br)cc3)nc3ccccc3c2=O)c1C -12.2%
Cn1c(=O)oc2cc(S(=O)(=O)NCCC(=O)Nc3ccc(F)c(Cl)c3)ccc21 -8.82%
CC(C)CN(CCNC(=O)c1cc(=O)[nH]c2ccc(S(=O)(=O)N3CCCCCC3)cc12)CC(C)C -2.82%
Cc1ccc(-n2ncc(C(=O)NCc3cccs3)c2C2CCN(C(=O)OC(C)(C)C)CC2)cc1C 2.51%
CCC(Cn1nnc2ccccc2c1=O)NC(=O)Nc1cc(Cl)ccc1OC (centres undefined) -7.38%
CCOc1ccc(NC(=O)CCCN2C(=O)C(c3ccccc3)Oc3cccnc32)cc1 (centres undefined) -4.44%
CC(=O)N1CCCc2cc(S(=O)(=O)N(C)CC(=O)Nc3ccc(F)c(Cl)c3)ccc21 17%
CC1CCCCN1C(=O)CSc1nnc(-c2cccc(Cl)c2)o1 (centres undefined) 3.96%
Cc1ccc(Cl)cc1NC(=O)/C(C#N)=C/c1c(C)n(Cc2ccccc2)c2ccccc12 1.24%
Fc1ccc(-c2csc(-c3nc(-c4ccc(Br)s4)cs3)n2)cc1 6.52%
Cc1cccc(-c2noc(CN(C(=O)c3ccc(C)c(C)c3)C(C)C)n2)c1 -2.46%
Cc1ccc(NC(=O)c2ncn(-c3ccccc3)n2)c(Cl)c1 3.63%
Cc1csc2nc(-c3cccc(NC(=O)c4cccc(F)c4)c3)cn12 -2.99%
CCN(CC)c1ccc2cc(-c3nnc(-c4cccc(Cl)c4)o3)c(=O)oc2c1 4.17%
Cc1ccc(C(=O)c2oc3ccccc3c2NC(=O)c2nc(S(C)(=O)=O)ncc2Cl)cc1F -14.3%
COc1cccc(NC(=O)CSc2nc(-c3ccccc3)nc3c2Cc2cc(Cl)ccc2O3)c1 -5.39%
O=C1NC(=O)C(=Cc2ccc(-c3ccc(F)cc3O)o2)S1 -1.85%
COc1ccccc1NC(=O)N(Cc1ccco1)C1CCN(C(C)=O)CC1 -1.14%
O=C(c1nc(-c2ccc(Cl)cc2)n2c1CCCCC2)N1CCN(c2ccc(F)cc2)CC1 -1.24%
CCCOc1ccc(OC(=O)c2sc3ncn(Cc4cccc(F)c4)c(=O)c3c2C)cc1 1.14%
CCOc1cc(C#N)c(NC(=O)c2ccc(OC)c(S(=O)(=O)N3CCCC3)c2)cc1OCC -1.13%
O=S(=O)(c1ccccc1)c1nc(-c2ccc(F)cc2)oc1N1CCOCC1 0.936%
CCOC(=O)c1cccc(NC(=O)CC(c2ccc(F)cc2)N2Cc3ccccc3C2=O)c1 (centres undefined) -5.25%
CCc1ccc(-c2[nH]c3c(c2-c2sc(C)c(C(=O)OC)c2O)c(=O)n(C)c(=O)n3C)cc1 -8.35%
O=C(Cc1ccccc1)Nc1c(C(=O)Nc2ccccc2F)oc2ccccc12 1.45%

outcome, inactive:
CCC(=O)Nc1ccc2nc(SCC(=O)N3CCc4ccccc43)sc2c1
Cc1ccc(CNC(=O)c2ccc(-c3nc(CN4CCc5ccccc54)c(C)o3)cc2)cc1
COc1ccc(CCC(=O)NC2CC(=O)N(c3ccc(C)c(C)c3)C2)cc1 (centres undefined)
CCOc1ccc(S(=O)(=O)Nc2ccc3c(c2)c(C(C)=O)c(C)n3S(=O)(=O)c2ccc(OCC)cc2)cc1
COc1ccc2nc(NS(=O)(=O)c3ccc(C)cc3)c(Nc3cc(Cl)ccc3OC)nc2c1
COc1ccc(CNC(=O)C(=O)NCC(c2ccc3c(c2)OCO3)N2CCOCC2)cc1 (centres undefined)
Cc1ccc(CNC(=O)c2cn(C)c3ccc(S(=O)(=O)N(C)C4CCCCC4)cc3c2=O)cc1
Cc1ccc(CNC(=O)c2nc(SCc3cccc(C)c3)ncc2Cl)cc1
CCC(=O)N1CCc2cc(S(=O)(=O)CCC(=O)N3CCN(c4cccc(C)c4)C(C)C3)ccc21 (centres undefined)
Cc1ccc(-c2cn3cccc(C)c3n2)cc1NS(=O)(=O)c1ccccc1
Cc1cc(C)cc(C(=O)Nc2cc(C(F)(F)F)ccc2N2CCN(c3ccccc3)CC2)c1
COc1ccc(OC)c(CCNC(=O)CCn2c(=O)c3cccn3c3cccnc32)c1
CC(=O)Nc1ccc(S(=O)(=O)NCC2CCC(C(=O)NCCCOC(C)C)CC2)cc1 (centres undefined)
CCOc1cc(C(=O)OCc2cc(=O)n3c(C)csc3n2)cc(OCC)c1OCC
Cc1cccc(N(CC(=O)NC(C)c2ccccc2)S(=O)(=O)c2ccccc2)c1C (centres undefined)
CCOc1ccc(-c2nonc2NC(=O)c2ccccc2C)cc1
CCOc1ccc(-c2cc3c(=O)n(CC(=O)Nc4c(C)cccc4C)ccn3n2)cc1
Cc1cccc(C2N3CC4(C(C)C)CN2CC(C(C)C)(C3)C4=O)c1 (centres undefined)
COc1ccc(C)cc1N(C)C(=O)c1sc2nc3n(c(=O)c2c1C)CCCCC3
CCCCN(C)CCNC(=O)Cn1ncc2c3ccccc3n(CCC)c2c1=O
CCCCCn1c(=O)[nH]c2cc(C(=O)NCc3ccc(C)cc3)ccc2c1=O
CCOc1ccc(CCNC(=O)C2=C(C)C(=O)OC23CCC(C)CC3)cc1OCC (centres undefined)
